1 molecule from patent publication US10801046B2, “Methods and materials for biosynthesizing multifunctional, multivariate molecules via carbon chain modification” (INVISTA NORTH AMERICA S.A.R.L., priority 2016, dated 2020) can be followed below.

Holding throughout (type): biochemical
Assay [1] can be described thus: Aminotransferase activity, heptane-1,7-diamine to 7-aminoheptanal, L-alanine formation by RP-HPLC. The following applies: cell free extract, 10 mM substrate, 25° C., 4 h, against empty vector control, FIG. 50. The procedure:
A sequence encoding an N-terminal His-tag was added to the Chromobacterium violaceum, Pseudomonas aeruginosa, Pseudomonas syringae, Rhodobacter sphaeroides, Escherichia coli, and Vibrio fluvialis genes encoding the aminotransferases of SEQ ID NOs: 116 (GenBank Accession No. AAQ59697.1), 119 (RefSeq Accession No. NP_417544.5), 125 (GenBank Accession No. AAGO8191.1), 126 (GenBank Accession No. AAY39893.1), 127 (GenBank Accession No. ABA81135.1), and 128 (GenBank Accession No. AEA39183.1), respectively such that N-terminal HIS tagged aminotransferases could be produced. The modified genes were cloned into a pET21a expression vector under the T7 promoter. Each expression vector was transformed into a BL21[DE3] E. coli host. Each resulting recombinant E. coli strain were cultivated at 37° C. in a 250 mL shake flask culture containing 50 mL LB media and antibiotic selection pressure, with shaking at 230 rpm. Each culture was induced overnight at 16° C. using 1 mM IPTG.
The pellet from each induced shake flask culture was harvested via centrifugation. […]
Enzyme activity assays in the reverse direction (i.e., heptane-1,7-diamine to 7-aminoheptanal) were performed in a buffer composed of a final concentration of 50 mM HEPES buffer (pH=7.5), 10 mM heptane-1,7-diamine, 10 mM pyruvate, and 100 μM pyridoxyl 5′ phosphate. […] The formation of L-alanine was quantified via RP-HPLC.

The nature of assay [2]: Aminotransferase activity, reverse direction (7-aminoheptanoate to 7-oxoheptanoate), L-alanine formation by RP-HPLC. The following applies: cell free extract, 10 mM substrate, 25° C., 4 h, against empty vector control, FIG. 48. The procedure: (§1) A sequence encoding an N-terminal His-tag was added to the genes from Chromobacterium violaceum, Pseudomonas syringae, Rhodobacter sphaeroides, and Vibrio Fluvialis encoding the aminotransferases of SEQ ID NOs: 116 (GenBank Accession No. AAQ59697.1), 126 (GenBank Accession No. AAY39893.1), 127 (GenBank Accession No. ABA81135.1), and 128 (GenBank Accession No. AEA39183.1), respectively such that N-terminal HIS tagged aminotransferases could be produced. Each of the resulting modified genes was cloned into a pET21a expression vector under control of the T7 promoter and each expression vector was transformed into a BL21 [DE3] E. coli host. The resulting recombinant E. coli strains were cultivated at 37° C. in a 250 mL shake flask culture containing 50 mL LB media and antibiotic selection pressure, with shaking at 230 rpm. Each culture was induced overnight at 16° C. using 1 mM IPTG.
(§2) The pellet from each induced shake flask culture was harvested via centrifugation. Each pellet was resuspended and lysed via sonication. […]
Enzyme activity assays in the reverse direction (i.e., 7-aminoheptanoate to 7-oxoheptanoate) were performed in a buffer composed of a final concentration of 50 mM HEPES buffer (pH=7.5), 10 mM 7-aminoheptanoate, 10 mM pyruvate and 100 μM pyridoxyl 5′ phosphate. […] The formation of L-alanine from pyruvate was quantified via RP-HPLC.

The nature of assay [3]: Aminotransferase activity, 7-aminoheptanol to 7-oxoheptanol, L-alanine formation by RP-HPLC. The following applies: cell free extract, 10 mM substrate, 25° C., 4 h, against empty vector control, FIG. 52. The procedure: A nucleotide sequence encoding an N-terminal His-tag was added to the Chromobacterium violaceum, Pseudomonas syringae and Rhodobacter sphaeroides genes encoding the aminotransferases of SEQ ID NOs: 116 (GenBank Accession No. AAQ59697.1), 126 (GenBank Accession No. AAY39893.1), and 127 (GenBank Accession No. ABA81135.1), respectively such that N-terminal HIS tagged aminotransferases could be produced. The modified genes were cloned into a pET21a expression vector under the T7 promoter. Each expression vector was transformed into a BL21[DE3] E. coli host. Each resulting recombinant E. coli strain were cultivated at 37° C. in a 250 mL shake flask culture containing 50 mL LB media and antibiotic selection pressure, with shaking at 230 rpm. Each culture was induced overnight at 16° C. using 1 mM IPTG.
The pellet from each induced shake flask culture was harvested via centrifugation. Each pellet was resuspended and lysed via sonication. The cell debris was separated from the supernatant via centrifugation and the cell free extract was used immediately in enzyme activity assays.
Enzyme activity assays in the reverse direction (i.e., 7-aminoheptanol to 7-oxoheptanol) were performed in a buffer composed of a final concentration of 50 mM HEPES buffer (pH=7.5), 10 mM 7-aminoheptanol, 10 mM pyruvate, and 100 μM pyridoxyl 5′ phosphate. […] The formation of L-alanine was quantified via RP-HPLC.

The nature of assay [4]: Aminotransferase activity, forward direction (7-oxoheptanoate to 7-aminoheptanoate), pyruvate formation by RP-HPLC. The following applies: cell free extract, 10 mM substrate, 10 mM L-alanine, 25° C., 4 h, against empty vector control, FIG. 49. The procedure: as §1, §2
Enzyme activity in the forward direction (i.e., 7-oxoheptanoate to 7-aminoheptanoate) was confirmed for the aminotransferases of SEQ ID NO: 126 (GenBank Accession No. AAY39893.1), SEQ ID NO: 127 (GenBank Accession No. ABA81135.1), and SEQ ID NO: 128 (GenBank Accession No. AEA39183.1). […] The formation of pyruvate was quantified via RP-HPLC.

The nature of assay [5]: Aminotransferase activity, N7-acetyl-1,7-diaminoheptane to N7-acetyl-7-aminoheptanal, L-alanine formation by RP-HPLC. The following applies: cell free extract, 10 mM substrate, 25° C., 4 h, against empty vector control, FIG. 51. The procedure:
The activity of the N-terminal His-tagged aminotransferases of SEQ ID NOs: 116 (GenBank Accession No. AAQ59697.1), 119 (RefSeq Accession No. NP_417544.5), 125 (GenBank Accession No. AAGO8191.1), 126 (GenBank Accession No. AAY39893.1), 127 (GenBank Accession No. ABA81135.1), and 128 (GenBank Accession No. AEA39183.1) (see Example 6) for converting N7-acetyl-1,7-diaminoheptane to N7-acetyl-7-aminoheptanal was assayed using a buffer composed of a final concentration of 50 mM HEPES buffer (pH=7.5), 10 mM N7-acetyl-1,7-diaminoheptane, 10 mM pyruvate and 100 μM pyridoxyl 5′ phosphate. Each enzyme activity assay reaction was initiated by adding a cell free extract of the aminotransferases or the empty vector control to the assay buffer containing the N7-acetyl-1,7-diaminoheptane then incubated at 25° C. for 4 h, with shaking at 250 rpm. The formation of L-alanine was quantified via RP-HPLC.

B1: SEQ ID NO: 127: Rhodobacter sphaeroides aminotransferase (protein)
chain: MTRNDATNAAGAVGAAMRDHILLPAQEMAKLGKSAQPVLTHAEGIYVHTEDGRRLIDGPAGMWCAQVGYGRREIVDAMAHQAMVLPYASPWYMATSPAARLAEKIATLTPGDLNRIFFTTGGSTAVDSALRFSEFYNNVLGRPQKKRIIVRYDGYHGSTALTAACTGRTGNWPNFDIAQDRISFLSSPNPRHAGNRSQEAFLDDLVQEFEDRIESLGPDTIAAFLAEPILASGGVIIPPAGYHARFKAICEKHDILYISDEVVTGFGRCGEWFASEKVFGVVPDIITFAKGVTSGYVPLGGLAISEAVLARISGENAKGSWFTNGYTYSNQPVACAAALANIELMEREGIVDQAREMADYFAAALASLRDLPGVAETRSVGLVGCVQCLLDPTRADGTAEDKAFTLKIDERCFELGLIVRPLGDLCVISPPLIISRAQIDEMVAIMRQAITEVSAAHGLTAKEPAAV
modifications: Rhodobacter sphaeroides; Rhodobacter sphaeroides (strain ATCC 17023 / 2.4.1 / NCIB 8253 / DSM 158)
notes: Rhodobacter sphaeroides aminotransferase
With B1, the “acceptance of heptane-1,7-diamine as substrate, forming 7-aminoheptanal” value in assay [1] is recorded as “accepted heptane-1,7-diamine as substrate”. Further, the “acceptance of 7-aminoheptanoate as substrate” value in assay [2] was “accepted 7-aminoheptanote as substrate”. The “acceptance of 7-aminoheptanol as substrate, forming 7-oxoheptanol” value in assay [3] is given as “accepted 7-aminoheptanol as a substrate”. Besides, in assay [4], the “acceptance of 7-oxoheptanoate as substrate, forming 7-aminoheptanoate” value was “accepted 7-oxoheptanoate as a substrate”. Moreover, in assay [5], the “acceptance of N7-acetyl-1,7-diaminoheptane as substrate, forming N7-acetyl-7-aminoheptanal” value is on record as “accepted N7-acetyl-1,7-diaminoheptane as a substrate”.
